± gives the standard deviation of the averaged measurements. In all, about 4,000 sequences were measured (“arbitrary fluorescence units”: median about 830, highest 2% from about 6,500 on). The list lacks most of the strong results.
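Also: Full-length recombinant human RUNX1 bound to double-stranded DNA microarray spots, detected with an Alexa488-labelled secondary antibody after the anti-RUNX1 primary, read as scanned spot fluorescence.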

Chain of UniProt Q01196 (Q01196 whole entry): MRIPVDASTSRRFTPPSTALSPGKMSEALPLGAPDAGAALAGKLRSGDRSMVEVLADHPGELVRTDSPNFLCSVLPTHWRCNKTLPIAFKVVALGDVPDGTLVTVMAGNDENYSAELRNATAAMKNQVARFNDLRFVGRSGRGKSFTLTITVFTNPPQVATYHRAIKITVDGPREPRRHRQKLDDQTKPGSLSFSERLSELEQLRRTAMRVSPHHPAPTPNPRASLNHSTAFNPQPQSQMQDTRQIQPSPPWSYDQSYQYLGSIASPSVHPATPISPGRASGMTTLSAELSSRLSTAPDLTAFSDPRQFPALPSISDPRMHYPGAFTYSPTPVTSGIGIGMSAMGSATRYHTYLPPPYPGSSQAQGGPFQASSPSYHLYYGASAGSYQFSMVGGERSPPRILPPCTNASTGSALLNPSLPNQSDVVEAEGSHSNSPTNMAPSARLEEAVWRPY

The test has as its target RUNX1 (UniProt Q01196). The test is described as follows: RUNX1 binding intensity (PBM fluorescence), RUNX1 alone (arbitrary fluorescence units); higher = stronger binding. The conditions noted are these: RUNX1 concentration 2 nM; ETS1 concentration 0 nM. The method, then:
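gcPBM on 36-bp genomic-derived probes (partner site mutated) containing one RUNX1 site and no ETS1 site. Recombinant human RUNX1 (2 nM) was incubated alone or with ETS1 (25 nM) and detected by anti-RUNX1 antibody fluorescence. Values are medians over 4 replicate spots (not normalised). The probes sit in constant array flanks that are not printed.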
CCATGCGCTGCTGCCTTCCACTTACCGCCCTCGCAC came in with an RUNX1 binding intensity of 1340.
In turn, GCCTTGCGGCCTCTAGGTGCGGGCCGATAACAAAAC had an RUNX1 binding intensity of 696.
The same measure for AGGCGCCTGAAAAACTACATCTCCCACAATCCTCGG: 869.
The same measure for TCCAAACCACATGAAATAAGCAAGGGAGGTGGCAGC: 1340; for CACCTGCGAAAGTCACAGGGAAGCCACAGAGAGATG: 761.
For AGCCTCCGAGTCTGTTGTGGAGTGGGAACCGCGACT, the RUNX1 binding intensity was 807.
TGATTCCTGTGGCTACAAGGCTCCCGGGAGTGTCAG displayed an RUNX1 binding intensity of 757.
The sequence AAGGTTGCGGCTCACAGAGGCCGAACGTCCTCCGGG displayed an RUNX1 binding intensity of 785.
Sequence ATCACTCACCACAAAAGTCCCTTCACACTGCCTCCC registered an RUNX1 binding intensity of 3710.
Consider CGGCCTAGGCTTGCTGGCGTTCCTGCGGGCCGCGGA, for which the RUNX1 binding intensity was 716.
With GCCACCTCTTTCTGTGTTGCAAACCACAGGTCCACC, the RUNX1 binding intensity worked out at 1800.
With TTCAGAGCTCCGCAACAGGGAAGACAGGCAGTCCCG the figure was 753; with GCACCCTTGCTGATTCCCACAGTGTGGTATAAGAGG, 780; with TTGCAGAAGGTCCGTCGCTGCGGCGCGCTGCGCACC, 662.4 ± 4.4.
For ATGTCTTCATGTACAGGAACTGGGTCCCAGCCGCAG, the RUNX1 binding intensity came to 720.
In turn, CTACCACTACCGCCGCCGCCGCCTACATTCCGTAAA gave an RUNX1 binding intensity of 1650.
With ATCGACTACCGCATCTGCAGACGTGCGCGGAGATGG the figure was 756.
AGGCCACTGGGTCACCACAGGATCCGACTTCTCACA: the RUNX1 binding intensity is 797.
The same measure for GCACGGCTGAATTTCAAATGGGGTTTTGTGGTTTCT: 1340; for GCGGGCGTGCAGGCCGCAGATGAGGAATCAGACTAG: 749; for GGGCCGAAGGGGTTCGCACGCCAAGAACCGCCATGC: 722.
The same measure for CAGCTGCTGTGGGTGGTGGTGGGCAGGGAGCCCTCC: 787.
With GCGGGCGCACTGCGGGGGCCAAGGAACGAAGAAATG the figure was 728.
In turn, GACGGAGGAGGTGTAGTTCTGTCTCCTTGCGGCCTC yielded an RUNX1 binding intensity of 769.
With GGGAAGAGGCGGTTGGGCTGCGCAAGGACGGGGCGC the figure was 732.
With GCTGCGGCGGCGGCGAAGAGACAACCTCCGCTGGAA the figure was 793.
Sequence AGCTGCTTGCTGCATCTCAGGCCTTTCTGCGGCCTC showed an RUNX1 binding intensity of 692.
The same measure for CTGCACAGCTGTGGTTGTGTAACGTCCCCCAGATGC: 735; for TCAGAGACTTTCGCTCAGCAGCAGCTGCGGCCAGGC: 644; for TAGAGGAGCAGCCGCAGACCAGACATACGGGTCCCT: 680.
The same measure for ACCCTCTTTTCGGTGGAAAGCTGCGGCCTCCCAGAG: 805; for TTGCATGTGGTTTAGGCTGTAGTCTCCTCCTGTAGT: 1200.
The same measure for GGTGGCCGCCTGAAGTGTGACCGCGGGAGGGGAGTG: 797; for TCCGCGGTGCCTCTAGGGGGCGGGGCTTACGGCTGG: 684.
Turning to AACCTGTGGGTGGGAGGTGAAGTGGAACGGTCCCGG, the RUNX1 binding intensity amounted to 793.
As for GCGCCCGAAACCGCTGGCCCGGCAACCCCGAAACGT, the RUNX1 binding intensity was found to be 1100.
The sequence GTTTTCAAGGCAGCAAGTGGCTGTGGTGGCACGGAG came in with an RUNX1 binding intensity of 837.
With GCGGGCGTGTGTGGGGGCGACGGCGTACGGGAGGCT the figure was 843; with TGGTTCATGTGGGTGCACACAGCAAATGAGAGAACG, 748; with CCAAGCACTTGCTGCTGTTAGCTTTGTGGGCTGAGT, 775.
On to AGCTTTCTGTGGTGTAAACAGCAAGCGAGACCATGT, for which the RUNX1 binding intensity came to 788.
With TGAAGTTGTGGGACGAAGCCAGCAAGTCAGCCCAGA the figure was 694; with AATCCACCTGAAACACTTAGACGCCGCAACCCCAGT, 1100.
CCTGAGCGCCCGAAAGGAAGGCTGTGGTAGGTTGTC: the RUNX1 binding intensity is 801.
With AAGCTGGGTGTGGTCTCCTGGGCAGGGAGCCACCAA the figure was 779.
Turning to TCTCCCTGCCCGCAAGTCAAAGCCACTGCCTTTTCC, the RUNX1 binding intensity was 2570.
GCAGCAAGCGCGGACCTGGGGTTGCGGCGTCTAAGT registered an RUNX1 binding intensity of 718.
Sequence AGGGTTTGTGGGTTATCAGGCTTTGCTGCCATAAAC registered an RUNX1 binding intensity of 1090.
As for CAAGCCAGCAAGAGGGCCCTCACCAGAAACCGCACT, the RUNX1 binding intensity was 1040.
With CTCCTTGTGGGGCGCAGGGACATGAAGCAGGGTTTA the figure was 734.
CAGGCCTTTGCTGCTATCGTTTGTGGTTTGAGCAGT registered an RUNX1 binding intensity of 1390.
The same measure for GCGGGGCGGGGTACCGCGGAGTCATCATGGCAACCC: 868.
The sequence CTTCTCGCGGGAGCGGCACAAGCCGCAGTACAGCGC had an RUNX1 binding intensity of 695.
With CACCTCGGGGGTCTCCGGTCCGTGGTTAGCTCCTTC the figure was 867; with CCCTGCTGGAACACGTGCGCCTGTGGTGACCCGGCA, 788; with ACCGAAACTGCGGCCCAGCAAAAAGGGAACTAGGGG, 858.
CAGGGCCCGGCATACGCGCCATGGACCGCGCAGCTT registered an RUNX1 binding intensity of 704.
In turn, AAGAACCCACATCAAAGGCTCCCAGCAAGCGCGAGC came in with an RUNX1 binding intensity of 761.
With ACAGCAAGTGTCTCTATAGAAACCAAACCACAGAAA the figure was 994; with AGGAGGGGGAAACCACCAAAGCCAGGCAGTTACACA, 892.
The same measure for GGCTTCTTGTGGGGTGATACAGGGGCTGCCTCGTCC: 877.
The same measure for AAGAAAGGTTCCAGCCTGCGCCCTGCTACCGCGGCG: 738; for GGGTGAGTAGTTCCTCCTGCGGTGGGTCGGCATGTA: 738.
CCCCCTGAACATACGGGGCCTTTTAACCGCCCACGG gave an RUNX1 binding intensity of 910.
The same measure for GCAGGTCCACCGCGCATGCCTGAAGAGGAGGCCCAG: 805; for GAGGAGGAGGTGCGCTGGCTGTTCTGCTGCGGGCCG: 704; for AAGCCCCGCAACAGCTCCCTTCCACCTGAAGCGTCC: 945.
With GCGCGGTCTGGGGGTCCCCGGCGCATAGCCGGGTCT the figure was 804; with GACCATGGAGCCGCAGCCGAGTCCCGTGTCCACTTC, 992.
With GTAGGTGTGGTACGCCGCACCAGCAAATACTGAAAC the figure was 682.
In turn, GGCGTGGTTTCGGCCCCGGCGCAGCTGGATCTGGCA displayed an RUNX1 binding intensity of 692.
Take AGACGTGGTTACAAAGGTCCCAAGTTCAGGCAGTAA: the RUNX1 binding intensity was 754.
The same measure for CGGCGGCCGCTGCGGGAGCCACAGGCAGTGAAGAGC: 748; for ACCACCCACAGCCGTCTAACATCAATTCCTTCAGAG: 1100; for TGCAACCACAGGGGCGAAGAAGTCAGCAAATGCTGC: 746.
GTCACAGTAAAGAAGGAGCCTCGCCTTAACCGCACC displayed an RUNX1 binding intensity of 1260.
In turn, AGGCGGCAGCAAATGACCCCATCCCGCAGCCTGGGC showed an RUNX1 binding intensity of 1040.
Sequence AACCCCAAAACGGAGACACCGGAGCCACAAGCTGAG yielded an RUNX1 binding intensity of 810.4 ± 3.3.
With ATTCTGCATCGTGTGCTCTTTCCATGAGACCACAAA the figure was 793; with CGGGACCGCGGGCCGGAGTTTTGGCCGAAGAGGCCG, 714.
As for AGAAGGGCCACAACCGTCACGTGTTCCTCTTCAGCA, the RUNX1 binding intensity was determined as 847.
The same measure for AGGTTGGGGGAAACCACTAAGAGGACGCAGGGTTAG: 972; for CACTGGCAAGGTGGTTTGAGAACTCCCTCTTTCATC: 1040.
With ACTACAATTCCCGGCAGGGACTGCGGCCCAGCGTAC the figure was 1290; with AGGGTTGCGGCAGAGCCATGGACTCCCGGTCCCTGC, 744.
With GCAGGCTCGAGCGGTCAAAGCTCTTTCAGGGGGCCC the figure was 765; with GGAGAGCTCCTGCGGTCCAGCCGGCTGACTGATGAG, 1000.
With GGGCTATTGTCTCCCCCCCCATGTGACCACAGCCTC, the RUNX1 binding intensity is 1020.
With GATGTGGCTTGCCAAAAAAAAGCATAGCCTTGGGTG the figure was 726; with AAGACCGGCCGCAAACCAGCAAGATGGCGTACGGCC, 817; with TGGGCCGGGGAGCAAGGCGGCTCGCGGTTCCTCCAC, 672.
With AGAACCACCTCCTCTCAGTAAACCACAGAGACTGTA the figure was 1410; with CAAGTGTACATGTGGTTATAACTTGCTGTGCTGCCT, 853; with GTGGCTTTGTGGTTCCTTGTTGCCTGGGCTGGTCTG, 1700.
With ATAGGAATGCTGGATCCCCACCGCTGGCCAGCACAG the figure was 724; with TATTGCCTGTGCACAGAAGCAGCTGGGCCGCAGAGT, 700; with GTGCCGAAACCACCTCTTTCTTTGCTGCCTTCCTCC, 1590.
Sequence TAGGCTCCCGCGGTTCGGCCTTGCTCCCTCTGTGAC registered an RUNX1 binding intensity of 763.
With GAGGCAGTGGGTTTACTGTGTAGTTCCTTCTCTGGT the figure was 769.
CAACCCAAGGGGATCTGCTCACTGCGGTGAGGAGGC returned an RUNX1 binding intensity of 737.
With CATGTGGTTATCTCATCGTTTTAAAGGAGGTGGGGA the figure was 879.
With GCTCTGCAGCATGTGGCTGTGACCGCAGTGAGGAGC the figure was 1580; with TGTTGACTCAGAAAGATGATGGCTGTGGGGGCTGCA, 755; with GCCAGCCACAGACACCCTGTGCAGCTTGCTCCTTCG, 926.
For CCGCCTCCAGAAGAATTCTCTGCGGGCATGTTGCTG, the RUNX1 binding intensity is 871.
The same measure for AGAAGCTGCGGCCGCCCCCGATTCCTCTCTTCCTCC: 1020; for GGCGGGGCGCGGCCGCAGCTCCGTTTCAGGTGGCTC: 760; for GGGGTCCGCGGTGGCTGCCGCATTCGGTTTAGGGGC: 711.
With TATCAGGCAGGCTGCCTTCAAGACCGCTGTTTTTGC the figure was 722; with TCTACATACCACACATGTGAACCTCCGCCCCGCCAC, 1160 ± 82; with CGTTTACTGTCTGGGACTGCGCCCACGCGGTCACGT, 871.
Consider GGGCAGCATCGTGTGCCTGCTTCTCTTACCCACATC, for which the RUNX1 binding intensity turned out to be 817.
The same measure for TGCTTGCCGTCCGTGTCGCGGCCCTGCGGTTGGCGG: 902.
The same measure for TGAGCCCTACTTTCGGTGGTGCTGTGGTCTGCCCCT: 794; for TGGGCAGCAAGTGGTATCTGATTGTGGTTTTGATTT: 1840.
For the sequence TGCGTGGTTGTCCCAGGCAGTCCCCTGAAAGCAAGG, the RUNX1 binding intensity was determined as 697.
The same measure for CATAGTGGATCTGCGGGTTAGAGGAGATAGGCTGCA: 994.
CGGAGGCGGCCGGGAGTAGCGCTGCGGTTGGCAGCT: the RUNX1 binding intensity came to 921.
With CCCAGGGCTGTGGGCTCCTGAGCCAGGCAATGGGTC the figure was 676.
As to GAAGGAGCTAACCACGGACCGGAGACCCCCGAGGTG, the RUNX1 binding intensity is 832.
The sequence TCCCGCTGCGGCCAACAGCCGGGCCACTTTCGGGGC gave an RUNX1 binding intensity of 822.
GTTTGGGGATTTGTGGTGTCAGGAATCACTTAAGAT registered an RUNX1 binding intensity of 935.
The same measure for GGCGGGAGAGGAGGCCGGGCGGCCGCAGCTGCCTGT: 669.
The sequence ATTACAGGCAGTATGTCCTCCTCTGCCTAACCACTG yielded an RUNX1 binding intensity of 928.
With CACCCTCACGGAGACAGCTGTGTGTAACCACCTCCA the figure was 952.

The record behind these values is the supplement of paper PMC10681739.
